{
  "source": "PubChem BioAssay AID686979",
  "about": "(National Center for Advancing Translational Sciences (NCATS), 2013)",
  "note": "In all, about 420,000 compounds went through this assay and about 50,000 (12%) were called active. Inconclusive results, whose numbers are uncertain, are shown with a selection of clear calls. Calls come from the whole dose curve; as a rule, active = well fitted inhibition curve with a large enough effect; inconclusive = small, poorly fitted or top-dose-only effect; inactive = flat fitted curve, though single readings scatter. No potency is given beside an inconclusive call; the fits are too rough. Potency is the fitted concentration of half-maximal effect; tags give direction and shape of the fitted curve.",
  "data": [
    {"assay": "qHTS for Inhibitors of human tyrosyl-DNA phosphodiesterase 1 (TDP1): qHTS in cells in presence of CPT; note: nearly all actives have a fitted effect of over 55% in size", "conditions": "chicken DT40 Tdp1-/-;hTDP1 cells + 20 nM CPT, ATP luminescence, 48 h; series mostly up to 46.2 µM", "outline": "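Chicken DT40 Tdp1-/- cells stably complemented with human TDP1 were seeded at 400 cells/well in medium containing 20 nM camptothecin, exposed to pin-transferred compounds, and grown at 37 °C for at least 48 hr. Viability was read as ATP luminescence.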", "values": [
      {"smiles": "CN(C(=O)CSc1nc2ccc(NC(=O)c3ccccc3)cc2s1)c1ccccc1", "Potency": "inconclusive [inhibitor, single point]"},
      {"smiles": "O=C(O)CC(c1ccc(Cl)cc1)N1C(=O)CCC1=O", "note": "(stereo unspecified)", "Potency": "inactive"},
      {"smiles": "C/C(=N\\NC(=O)C1(C)NC(C)(C)Cc2ccccc21)c1ccccc1", "note": "(stereo unspecified)", "Potency": "inactive"},
      {"smiles": "CSc1ncccc1C(=O)Nc1nc2c(C)cccc2s1", "Potency": "inactive"},
      {"smiles": "O=C(c1ccc(Br)cc1)N1CCC(C(=O)N2CCN(c3ccccc3)CC2)CC1", "Potency": "inconclusive [inhibitor, single point]"},
      {"smiles": "C[C@H](NC(=O)N1CCn2c1nc1ccccc12)C(=O)NCc1ccccc1", "Potency": "inactive"},
      {"smiles": "CCOc1ccccc1/C=C/c1onc(C)c1S(=O)(=O)N1CCC(C(=O)N2CCCCC2)CC1", "Potency": "active: 16.4 µM"},
      {"smiles": "O=C(Cc1ccccc1)Nc1cccc([N+](=O)[O-])c1", "Potency": "inactive"},
      {"smiles": "Cc1nc2ccccc2nc1SCC(=O)c1ccccc1", "Potency": "inconclusive [inhibitor, single point]"},
      {"smiles": "CC1(C(=O)NS(=O)(=O)c2cccc(OC(F)F)c2)CCN1C(=O)c1ccccc1CCc1ccccc1", "note": "(stereo unspecified)", "Potency": "inconclusive [inhibitor, partial curve, poor fit]"},
      {"smiles": "COc1ccc2cc(C(=O)NCc3ccccc3CN3CCCC3)ccc2c1", "Potency": "inconclusive [inhibitor, single point]"},
      {"smiles": "COc1ccc(-c2noc(CNS(=O)(=O)c3ccc(NC(C)=O)cc3)n2)cc1", "Potency": "inconclusive [inhibitor, partial curve, poor fit]"},
      {"smiles": "CC(C)CN(C(=O)COC(=O)C(C)N1C(=O)c2ccccc2C1=O)c1c(N)n(Cc2ccccc2)c(=O)[nH]c1=O", "note": "(stereo unspecified)", "Potency": "inactive"},
      {"smiles": "CCOC(=O)N1CCC(NC(=O)CC2C(=O)NCCN2Cc2ccccc2)CC1", "note": "(stereo unspecified)", "Potency": "inactive"},
      {"smiles": "CC1=NN(C(=O)c2ccc(Cn3nc(C)c([N+](=O)[O-])c3C)cc2)C(O)(C(F)(F)F)C1", "note": "(stereo unspecified)", "Potency": "inconclusive [inhibitor, single point]"},
      {"smiles": "CC(=O)N/C(=C/c1ccc([N+](=O)[O-])cc1)C(=O)O", "Potency": "inactive"},
      {"smiles": "O=[N+]([O-])c1ccc(N2CCN(Cc3ccccc3)CC2)nc1", "Potency": "inconclusive [inhibitor, single point]"},
      {"smiles": "CC(=O)NCCc1ccc(-c2csc(NC(=O)C3CC(=O)N(C4CCCC4)C3)n2)cc1", "note": "(stereo unspecified)", "Potency": "inconclusive [inhibitor, single point]"},
      {"smiles": "C[C@H](CO)N1C[C@H](C)[C@@H](CN(C)Cc2ccc(-c3ccccc3)cc2)Oc2ccc(NC(=O)Cn3cnnn3)cc2C1=O", "Potency": "inconclusive [inhibitor, single point]"},
      {"smiles": "COCCNC(=O)C1(C)CCN(C(=O)c2ccc3c(c2)C(C)(C)CCC3(C)C)C1", "note": "(stereo unspecified)", "Potency": "inconclusive [inhibitor, single point]"},
      {"smiles": "COc1cc(CN(C(=O)c2ccc(C)cc2)c2ccccn2)cc(OC)c1OC", "Potency": "active: 18.4 µM"},
      {"smiles": "Cc1ccc(NC(=O)CN(C)C(=O)c2ccc(OCc3cn4ccccc4n3)cc2)cc1", "Potency": "inconclusive [inhibitor, single point]"},
      {"smiles": "COc1ccc(/C=N/NC(=O)c2cccc(OC(F)(F)C(F)F)c2)c(OC)c1OC", "Potency": "inactive"},
      {"smiles": "COc1ccc(C(=O)CC2(O)C(=O)N(CCc3ccccc3)c3ccc(Br)cc32)cc1OC", "note": "(stereo unspecified)", "Potency": "active: 16.4 µM"},
      {"smiles": "CC1=C(C(=O)N2CCOCC2)CC(CC(=O)NCc2ccco2)C(=O)N1Cc1ccc(F)cc1", "note": "(stereo unspecified)", "Potency": "inactive"},
      {"smiles": "CC1CN(C(=O)Cn2cnc3c2c(=O)n(C)c(=O)n3C)CC(C)O1", "note": "(stereo unspecified)", "Potency": "inactive"},
      {"smiles": "COc1cc(/C=C2\\CCn3c2nc2cc(C(=O)O)ccc2c3=O)ccc1OC(F)F", "Potency": "inconclusive [inhibitor, single point]"},
      {"smiles": "Cc1ccc(NC(=O)C2=C(O)c3sccc3N(C)S2(=O)=O)cc1", "Potency": "inconclusive [inhibitor, single point]"},
      {"smiles": "CC12CCC(CC1O)C2C(=O)O", "note": "(stereo unspecified)", "Potency": "inactive"},
      {"smiles": "O=C(CN1C(=O)c2ccccc2S1(=O)=O)c1ccc2c(c1)OCCCO2", "Potency": "inactive"},
      {"smiles": "CC(=O)Nc1ccc(S(=O)(=O)NC2=C(N3CCN(c4ccc(F)cc4)CC3)C(=O)c3ccccc3C2=O)cc1", "Potency": "active: 10.3 µM"},
      {"smiles": "Nc1ccc2oc(-c3ccccc3Cl)nc2c1", "Potency": "inactive"},
      {"smiles": "COc1ccc(C)cc1NC(=O)CCNC(=O)Cn1cnc2ccccc2c1=O", "Potency": "inactive"},
      {"smiles": "CNC(=O)CSc1nnc(NC(=O)C2CC(=O)N(c3ccccc3OC)C2)s1", "note": "(stereo unspecified)", "Potency": "inactive"},
      {"smiles": "c1ccc2[nH]c(CCCCc3nc4ccccc4[nH]3)nc2c1", "Potency": "inconclusive [inhibitor, full curve, poor fit]"},
      {"smiles": "Cc1ccccc1-c1nc(CN2CCC(C(=O)NCCCN3CCCC(C)C3)CC2)c(C)o1", "note": "(stereo unspecified)", "Potency": "inconclusive [inhibitor, single point]"},
      {"smiles": "O=[N+]([O-])c1cc([N+](=O)[O-])c2nonc2c1Nc1ccccc1O", "Potency": "inconclusive [inhibitor, single point]"},
      {"smiles": "COC(=O)CCN1CCC2CC1c1cc(Cl)ccc12", "note": "(stereo unspecified)", "Potency": "inactive"},
      {"smiles": "Cn1cccc1C(=O)N1CCC2(CCCN(C(=O)Nc3ccccc3)C2)CC1", "Potency": "inactive"},
      {"smiles": "Cc1cccc(C2CC(c3ccccc3)Nc3ncnn32)c1", "note": "(stereo unspecified)", "Potency": "inconclusive [inhibitor, single point]"},
      {"smiles": "O=C(NCc1ccccn1)C1CCN(Cc2cccc(OCc3ccccc3)c2)CC1", "Potency": "inconclusive [inhibitor, single point]"},
      {"smiles": "Cn1nc(C(=O)Nc2ccc(S(=O)(=O)N3CCCCC3)cc2)ccc1=O", "Potency": "inconclusive [inhibitor, partial curve]"},
      {"smiles": "O=C(CCOc1ccccc1)Nc1ccccc1", "Potency": "inactive"},
      {"smiles": "O=C(NC(NCc1ccccc1)C(Cl)(Cl)Cl)c1cccnc1", "note": "(stereo unspecified)", "Potency": "inactive"},
      {"smiles": "COc1ccc(OC)c(CCNC(=O)CSc2ccsc2[N+](=O)[O-])c1", "Potency": "inconclusive [inhibitor, partial curve]"},
      {"smiles": "CCCOC(=O)c1ccc(NC(=O)c2nc3nc(C)cc(C)n3n2)cc1", "Potency": "inactive"},
      {"smiles": "Cc1cc(SCC(=O)c2ccccc2)n2ncc(-c3ccccc3)c2n1", "Potency": "inconclusive [inhibitor, single point]"},
      {"smiles": "CC1(C)CC(=O)N(CC(=O)O)c2ccccc2S1", "Potency": "inactive"},
      {"smiles": "Cc1ccccc1-c1noc(-c2ccc(NC3CCCC3)c([N+](=O)[O-])c2)n1", "Potency": "inactive"},
      {"smiles": "O=c1cc(CSc2nnnn2-c2ccccc2)nc2scc(-c3ccccc3)n12", "Potency": "inconclusive [inhibitor, single point]"},
      {"smiles": "COc1ccc(-c2c3c(=O)n(C)c(=O)n(C)c3cn2N2CCOCC2)cc1", "Potency": "inactive"},
      {"smiles": "O=C(CCc1nnc(CCc2ccccc2)o1)NC(c1cccnc1)C(F)(F)F", "note": "(stereo unspecified)", "Potency": "inactive"},
      {"smiles": "O=C(Cn1nc2c(cc1=O)CCCC2)NCc1ccccc1", "Potency": "inconclusive [inhibitor, single point]"},
      {"smiles": "CCC1CCCCN1S(=O)(=O)c1ccc(NC(=O)c2snnc2C)cc1", "note": "(stereo unspecified)", "Potency": "inconclusive [inhibitor, single point]"},
      {"smiles": "NC(=O)CC(NC(=O)Cc1ccc(Br)cc1)c1ccc(NCCN2CCOCC2)c([N+](=O)[O-])c1", "note": "(stereo unspecified)", "Potency": "inactive"},
      {"smiles": "O=C(Cn1ncc(Cl)c(Cl)c1=O)c1ccc(Cl)cc1", "Potency": "active: 2.91 µM"},
      {"smiles": "CCCN1CCC(N2CCN(c3ccc([N+](=O)[O-])cc3)CC2)CC1", "Potency": "inconclusive [inhibitor, single point]"},
      {"smiles": "COc1cc2ncnc(NCc3ccc(C)o3)c2cc1OC", "Potency": "inconclusive [inhibitor, single point]"},
      {"smiles": "COc1ccc(C(=O)OCC(=O)Nc2sccc2C(N)=O)cc1OC", "Potency": "inconclusive [inhibitor, single point]"},
      {"smiles": "O=S(=O)(c1ccc2nc(Nc3ccc(Br)cc3F)ccc2c1)N1CCCC1", "Potency": "inactive"},
      {"smiles": "O=C(NCc1ccccc1Cl)C1CCN(S(=O)(=O)c2ccc(-n3cnnn3)cc2)CC1", "Potency": "inactive"},
      {"smiles": "NNc1nc2c(-c3ccc(Cl)cc3)nnn2c2ccccc12", "Potency": "active: 10.3 µM"},
      {"smiles": "COC(=O)c1cccc(C(=O)N2CCC(CCC(=O)NCc3ccc(F)cc3)CC2)c1", "Potency": "inconclusive [inhibitor, single point]"},
      {"smiles": "CCOc1ccc(Br)cc1S(=O)(=O)Nc1ccc(C(=O)OC(C)C(=O)N(C)c2ccccc2)cc1", "note": "(stereo unspecified)", "Potency": "inconclusive [inhibitor, single point]"},
      {"smiles": "NS(=O)(=O)c1ccc(CCNC(=O)CCc2ccccc2)cc1", "Potency": "inactive"},
      {"smiles": "O=C(NCCC1=CCCCC1)c1cc(S(=O)(=O)N2CCOCC2)ccc1F", "Potency": "active: 13 µM"},
      {"smiles": "Nc1ncnc(N)c1NC(=O)c1ccc(OCc2ccccc2)cc1", "Potency": "inactive"},
      {"smiles": "Cc1ccc(/C=C/C(=O)N2CC(C)CC(C)C2)o1", "note": "(stereo unspecified)", "Potency": "active: 1.46 µM"},
      {"smiles": "CC1(C)CC(=O)C=C(c2ccccc2-c2ccc(S(C)(=O)=O)cc2)C1=O", "Potency": "inactive"},
      {"smiles": "COc1ccc(S(=O)(=O)N2CCOCC2)cc1NC(=O)COc1ccc(C)cc1", "Potency": "inconclusive [inhibitor, partial curve]"},
      {"smiles": "O=c1[nH]c(=O)c2cc([N+](=O)[O-])cc([N+](=O)[O-])c2[nH]1", "Potency": "inconclusive [inhibitor, full curve]"},
      {"smiles": "Cc1ccc(-c2cnc(SCC(=O)N3CCCc4ccccc43)n2C)cc1", "Potency": "inactive"},
      {"smiles": "C=CCN(c1ccccc1)S(=O)(=O)c1cccc(C(=O)O)c1", "Potency": "inactive"},
      {"smiles": "CCOC(=O)N1CCN(Cc2cc(=O)oc3ccc4ccccc4c23)CC1", "Potency": "active: 23.1 µM"},
      {"smiles": "Cc1ccc(NC(=O)c2sc(Cl)nc2-c2ccccc2)cc1C", "Potency": "inconclusive [inhibitor, single point]"},
      {"smiles": "CCC12CCCN3CCc4c(n(c5ccccc45)C(O)(C(=O)OC)C1)C32", "note": "(stereo unspecified)", "Potency": "inconclusive [inhibitor, single point]"}
    ]}
  ]
}
